Results on 84 molecules are retold here after ChEMBL document CHEMBL4888484, “Replenishing the malaria drug discovery pipeline: Screening and hit evaluation of the MMV Hit Generation Library 1 (HGL1) against asexual blood stage Plasmodium falciparum ,using a nano luciferase reporter read-out” (2022).

Structures are written as SMILES. In all, about 150,000 compounds went through this assay and about 540 (0.36%) showed an effect of 50% or more. The list shows a part of the results.

The % Inhibition is the change of the read-out against control, counted positive when it falls.

For this assay, the system named is Plasmodium falciparum. The assay can be described thus: Primary screen in NF54 nanoGlo assay, in single point, at 2uM, 72h; a lower Z score goes with more inhibition. In kind it is functional, Erythrocyte. The settings on record: timepoint 72 hour.
Regarding `CCN(Cc1ccoc1)C(=O)OC(C)(C)C`, the “% Inhibition” value is recorded as -1% and the Z score turned out to be 0.09.
Taken in the same sequence, the figures for `C=CCN(Cc1ccccc1OCC)C(=O)c1cccc(=O)[nH]1` were 3% and -0.5.
With `O=C(C[C@H]1C(=O)NCCN1Cc1cccc2ccccc12)NCC1CC1`, the “% Inhibition” value is listed as -8% and the Z score is on record as 1.5.
The like results for `COc1ccc(CCNC(=O)COc2ccc(S(=O)(=O)N3CCCCC3)cc2)cc1OC` were, in that order, -6% and 0.87.
Taken in the same sequence, the figures for `Cc1cc(-c2cccs2)nn1CCNC(=O)N1CCNC1=O` were 16% and -2.1.
The like results for `Cc1ccn(CCn2nc(C3CCNCC3)n(Cc3ccccc3)c2=O)n1` were, in that order, -7% and 1.06.
`COc1ccccc1C(N)=NOCC(=O)N1CCO[C@@H](C)C1`: the “% Inhibition” value was -10% and the Z score amounted to 1.36.
The like results for `Cc1nc(N2CCC(C(=O)N3CCCC[C@@H]3C)CC2)nc2cc(S(C)(=O)=O)ccc12` were, in that order, -24% and 4.03.
Taken in the same sequence, the figures for `Fc1ccccc1-c1noc(N2CCc3ccccc32)n1` were -15% and 1.3.
The like results for `Cc1ccc(NC(=O)CN2C(=O)CCn3nc(-c4cccn4C)cc32)cc1` were, in that order, -7% and 1.34.
Consider `O=C(NCCOc1ccccc1F)C(=O)N1CCCC1`, for which the “% Inhibition” value is 7% and the Z score was -0.91.
On to `CC1CC(c2ccccc2)CN1C(=O)CC1(CS(C)(=O)=O)CC1` (stereo not drawn), for which the “% Inhibition” value is reported as -1% and the Z score turned out to be 0.1.
Taken in the same sequence, the figures for `CC(c1nnnn1C1CCCCC1)N1CCCC(O)(C(F)(F)F)C1` (stereo not drawn) were -5% and 0.89.
Taken in the same sequence, the figures for `Cc1cccc(N2C(=O)c3cccnc3[C@@H]2CC(=O)NCc2ccc(Cl)cc2)c1` were -12% and 2.33.
Taken in the same sequence, the figures for `Cc1ccc(-n2cc(NC(=O)N3CC[C@@]34CCOC4)cn2)c(C)c1` were -5% and 0.67.
Consider `Cc1c(Cl)cccc1-c1ccc(C(=O)Nc2ccc(N3CCCCC3)cc2)o1`, for which the “% Inhibition” value was 2% and the Z score is on record as -0.34.
Regarding `C[C@]1(C#N)CCCN(Cc2cccc3nonc23)C1`, the “% Inhibition” value is -4% and the Z score is recorded as 0.64.
The like results for `COCCNC(=O)CN1CCN(/C(=N/c2ccc(C(=O)O)cc2)NCCc2ccccc2)CC1` were, in that order, -2% and 0.22.
Taken in the same sequence, the figures for `CC1CCN(C(=O)C2CCC(=O)N(C3CC3)C2c2ccnn2C)C1C` (stereo not drawn) were -10% and 1.14.
The like results for `CC(C)n1nc2c(cc1=O)CN(c1ccc(C#N)cn1)CC2` were, in that order, 27% and -3.1.
Turning to `Cn1c(C(=O)NC(C)(C)C)cc2c1CCN(Cc1ccc(F)cc1)C2`, the “% Inhibition” value stood at 5% and the Z score is recorded as -0.62.
Taken in the same sequence, the figures for `O=C(Nc1ccc(O)cc1)[C@H](Cc1ccccc1)n1cnnn1` were 3% and -0.43.
For the molecule `O=C1CCC(CCNCc2cc3c(cc2Cl)OCO3)N1CC(c1ccncc1)N1CCOCC1` (stereo not drawn), the “% Inhibition” value is listed as -7% and the Z score is reported as 1.02.
On to `O=C(N[C@@H](c1ccsc1)c1cccs1)c1cc(C2CC2)on1`, for which the “% Inhibition” value was -15% and the Z score is 2.61.
Turning to `C[C@H](NS(C)(=O)=O)c1ccc(F)cc1F`, the “% Inhibition” value stood at 27% and the Z score is on record as -3.13.
Taken in the same sequence, the figures for `Cc1nnc([C@H](C)Nc2ccc(-c3ccccc3)cc2)o1` were -14% and 1.84.
Taken in the same sequence, the figures for `Cc1cc(C)c2c(C(=O)N3CCCC3)cc(-c3cnc(C(C)C)nc3)nc2c1` were -17% and 2.29.
Taken in the same sequence, the figures for `COc1ccc(CCC(C)NC(=O)C2CC(c3cccnc3)=NO2)cc1` (stereo not drawn) were -7% and 1.49.
`Cc1ccc(N(CC2CC2)C(=O)[C@H]2OCC[C@H]2Cn2cccn2)cc1F`: the “% Inhibition” value was -2% and the Z score stood at 0.34.
Taken in the same sequence, the figures for `CCOc1ccnc(NCC2(N(C)C)CCCC2)n1` were 1% and -0.11.
Taken in the same sequence, the figures for `O=C(c1cccc2ncnn12)N1CCC[C@H](C2CCOCC2)C1` were 2% and -0.17.
For the molecule `Cc1nn(C)c(C)c1C(=O)N1CCC(c2nnc(Cn3ccnc3C)n2C)CC1`, the “% Inhibition” value is -10% and the Z score is 1.7.
Taken in the same sequence, the figures for `CS(=O)(=O)C1CCCC(NCc2cccn2C2CC2)C1` (stereo not drawn) were -9% and 1.42.
The like results for `COc1cccc(C(=O)N[C@H]2CCO[C@H](c3ccccn3)C2)c1` were, in that order, 3% and -0.38.
The like results for `Cc1cccc(OC[C@@H](O)CNCCc2nnc3ccccn23)c1` were, in that order, -2% and 0.38.
Take `NC(=O)NC(=O)CCN1CC(c2ccccc2)OC(c2ccc(F)cc2)C1` (stereo not drawn): the “% Inhibition” value was -12% and the Z score amounted to 1.76.
Taken in the same sequence, the figures for `CCC1=NO[C@@H](CNC(=O)c2ccc(-n3cnnc3)nc2)C1` were -7% and 0.94.
Take `O=C1CCN(Cc2ccn(-c3ccc(Cl)cc3)n2)CCN1`: the “% Inhibition” value is -11% and the Z score amounted to 1.09.
The like results for `C[C@H]1CN(C(=O)C2(C(=O)NC3CC3)CCC2)CCN1C1CCCC1` were, in that order, -7% and 0.73.
Taken in the same sequence, the figures for `Cc1cccc(O)c1NC(=O)c1cccn2c(-c3ccccc3F)nnc12` were 0% and 0.02.
As for `O=S(=O)(Nc1nocc1C1CC1)c1ccc(Cl)cc1`, the “% Inhibition” value is reported as -6% and the Z score is 1.
The like results for `CN(Cc1n[nH]c(=O)n1CC1CCCCC1)S(C)(=O)=O` were, in that order, -13% and 1.86.
In the case of `CCn1nc2c(c(C(F)F)cc(=O)n2CCC(=O)N(C)Cc2ccnn2C)c1C`, the “% Inhibition” value was determined as 30% and the Z score is recorded as -3.36.
The like results for `Cc1cc(C)n(C2CN(C(=O)CCn3ccnc3C)C2)n1` were, in that order, -7% and 1.22.
Taken in the same sequence, the figures for `CCC(C)Oc1cc(CNC(=O)N2CC(C)CC(C(=O)O)C2)ccn1` (stereo not drawn) were 5% and -0.55.
Taken in the same sequence, the figures for `CC(C)c1nc(CNC(=O)c2ccncc2F)no1` were -14% and 1.8.
`COC(=O)N1CCC(CNC(=O)c2ccno2)CC1`: the “% Inhibition” value was -5% and the Z score is on record as 0.54.
For `Cc1cc(N2C(=O)C(C)(C)CS2(=O)=O)ccc1S(=O)(=O)Nc1ncccn1`, the “% Inhibition” value is recorded as -1% and the Z score was 0.08.
The like results for `CCN(CC(=O)Nc1cc(C)ccc1C)C[C@H](O)c1cccc(O)c1` were, in that order, -6% and 0.88.
As for `O=C(c1ccc(O)nc1)N1C2CCC1CC(Cc1ccccc1)C2` (stereo not drawn), the “% Inhibition” value is recorded as -21% and the Z score is 2.14.
Taken in the same sequence, the figures for `Cc1cc(C(C)NC[C@@H](C)O)ccc1Br` (stereo partly drawn) were -2% and 0.31.
The like results for `CCn1cnnc1CN(C)C(=O)Cc1c(C)n[nH]c1C` were, in that order, -15% and 1.89.
Taken in the same sequence, the figures for `Cc1cc2c(cc(C(=O)NCCCc3ccccc3)n2Cc2ccc(Cl)cc2)o1` were -6% and 1.16.
As for `COc1ccc(Cl)cc1N1CC[C@H](NC(=O)N2CCC(CC(N)=O)CC2)C1`, the “% Inhibition” value was 3% and the Z score is -0.66.
The like results for `O=C(Cc1cccc(C(F)(F)F)n1)Nc1cncc2c1CCCC2` were, in that order, -17% and 2.26.
As to `Cc1ccc2c(c1)CCCN2C(=O)CN1CCn2nc([C@H](C)O)cc2C1`, the “% Inhibition” value is -14% and the Z score is on record as 1.61.
Regarding `C=CCN(CC#Cc1ccccc1)Cc1ccccn1`, the “% Inhibition” value is reported as -13% and the Z score was 1.9.
Take `O=C(NCC1CC2C=CC1C2)c1ccc(Cl)cc1` (stereo not drawn): the “% Inhibition” value is recorded as 1% and the Z score is -0.09.
Taken in the same sequence, the figures for `CC1CCc2c(F)cccc2C1NC(=O)c1nc(=O)[nH][nH]1` (stereo not drawn) were 5% and -0.84.
The like results for `Cc1cc(C)cc(CN2CCN(C(=O)Cn3nc(C)cc3C)CC2=O)c1` were, in that order, -2% and 0.28.
Turning to `O=C(NC1CCN(Cc2ccccc2)CC1)c1ccc2ncnc(N3CCCCC3)c2c1`, the “% Inhibition” value came to 14% and the Z score is listed as -1.79.
The like results for `CCn1c(=O)c2sccc2n(CC(=O)Nc2ccc(OC)cc2)c1=O` were, in that order, 24% and -2.7.
The like results for `CCCc1nc(N2CCN(Cc3ccccn3)CC2)no1` were, in that order, -19% and 2.44.
The like results for `COc1ccc2cc1OCCn1cc(nn1)CO[C@H]1CN(C(=O)c3cnc(N4CCCCC4)nc3C)C[C@@H]1NC2=O` were, in that order, -16% and 2.04.
As to `Cc1cccc2c1C(=O)N[C@@H](c1ccc(N3CCNC(=O)C3)cc1)N2`, the “% Inhibition” value was 2% and the Z score is listed as -0.33.
The like results for `Cc1cc(C)cc(-n2nc(C(=O)NCc3ccc4c(c3)OCO4)c(=O)n(Cc3ccccc3)c2=O)c1` were, in that order, -2% and 0.38.
Taken in the same sequence, the figures for `CCS(=O)(=O)c1cc(Cl)cc(CNC(=O)NC2(C)CCC2)c1` were -2% and 0.37.
Consider `O=C(NC1CCCC1)c1nnc(CS(=O)(=O)c2ccccc2)o1`, for which the “% Inhibition” value was found to be 0% and the Z score is reported as 0.06.
Taken in the same sequence, the figures for `COC[C@@H]1CN(C(=O)c2ccc3[nH]ccc3c2)C[C@H]1c1nc(C)no1` were -4% and 0.7.
The like results for `COc1ccc(C)cc1[C@@H](C)NC(=O)CCc1nc(N(C)C)no1` were, in that order, -7% and 0.91.
The like results for `Cc1cc(C(=O)C[C@H](C(=O)Nc2ccccc2)C(=O)c2ccccc2)c(C)n1CCc1ccc(Cl)cc1` were, in that order, -19% and 3.49.
On to `CCO[C@@]1(C)C[C@H]1NC(=O)c1ccc(C)c(-c2cnn(C)c2)c1`, for which the “% Inhibition” value is given as -14% and the Z score is listed as 1.76.
The like results for `CCc1nc(N)sc1C(=O)N[C@H]1CC[C@@H]2CCC[C@@H]21` were, in that order, -1% and 0.26.
The like results for `CC(=O)N(CCCN1CCOCC1)[C@H]1CCN(S(=O)(=O)c2cccc3cccnc23)C1` were, in that order, -6% and 0.8.
Consider `CCn1c(CN2CCN(CC(=O)NC3CC3)CC2)nc2cc(S(=O)(=O)N3CCCCC3)ccc21`, for which the “% Inhibition” value is recorded as -3% and the Z score is given as 0.37.
Taken in the same sequence, the figures for `c1ccc(-c2ncn(CCc3c[nH]cn3)c2[C@H]2CCOC2)cc1` were -11% and 1.53.
Taken in the same sequence, the figures for `COc1cc(C(=O)NC2(c3c(F)cccc3F)COC2)ccn1` were -14% and 2.7.
As to `Cc1nnc(-c2cnn(C)c2N)n1C[C@H]1CCCO1`, the “% Inhibition” value came out at 45% and the Z score is -5.82.
The like results for `CC1CCCN(S(=O)(=O)N2CCCC2c2ccccc2)C1` (stereo not drawn) were, in that order, -9% and 1.12.
Taken in the same sequence, the figures for `CCOC(=O)[C@H](C)c1nc(-c2c[nH]c3ncccc23)cs1` were 5% and -0.81.
Taken in the same sequence, the figures for `CC(C)Oc1cncc(C(=O)NC2(c3ccccc3)COC2)c1` were -8% and 1.01.
Take `COc1nccnc1N1CCC[C@@]2(CCC(=O)N(Cc3ccccc3)C2)C1`: the “% Inhibition” value is 7% and the Z score is reported as -1.02.
Taken in the same sequence, the figures for `CN(C)CCN1C(=O)N[C@@](CCc2ccccc2)(C2CCN(C(=O)C3(C)CCCCC3)CC2)C1=O` were -8% and 1.53.
The like results for `Cc1nc2c(c(N3CCCC3)n1)CCN(C(=O)c1cc(=O)[nH]c(=O)[nH]1)C2` were, in that order, 0% and -0.05.
